# Data: PubChem BioAssay AID360 (National Center for Advancing Translational Sciences (NCATS), 2006)
# About 550 (1.1%) of roughly 48,000 compounds were called active. About 4% were inconclusive and are not listed. Cut-off read from the data, not from the text of the source: active = potency below about 15 µM; inconclusive = mostly about 16 µM to 33 µM; inactive = weaker than that. This is one part of the list.
# Biological target: Lysosomal acid glucosylceramidase (Homo sapiens) (UniProt P04062)
# Experiment: Glucocerebrosidase;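 note: the screen sought inhibitors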
# Conditions: purified enzyme, resorufin glucoside fluorescence (screen aimed at inhibitors), 20 min
# How it was run: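 Compounds titrated against 0.2 nM normal enzyme, 30 uM resorufin beta-D-glucopyranoside substrate, citrate/phosphate buffer with taurocholate and tween-20, pH 5.9. Reaction ran 20 min at room temperature; fluorescence (Ex 548/Em 600) gave AC50.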
# Potency is the fitted concentration of half-maximal effect.
# Chain of UniProt P04062 (P04062 whole entry, looked up): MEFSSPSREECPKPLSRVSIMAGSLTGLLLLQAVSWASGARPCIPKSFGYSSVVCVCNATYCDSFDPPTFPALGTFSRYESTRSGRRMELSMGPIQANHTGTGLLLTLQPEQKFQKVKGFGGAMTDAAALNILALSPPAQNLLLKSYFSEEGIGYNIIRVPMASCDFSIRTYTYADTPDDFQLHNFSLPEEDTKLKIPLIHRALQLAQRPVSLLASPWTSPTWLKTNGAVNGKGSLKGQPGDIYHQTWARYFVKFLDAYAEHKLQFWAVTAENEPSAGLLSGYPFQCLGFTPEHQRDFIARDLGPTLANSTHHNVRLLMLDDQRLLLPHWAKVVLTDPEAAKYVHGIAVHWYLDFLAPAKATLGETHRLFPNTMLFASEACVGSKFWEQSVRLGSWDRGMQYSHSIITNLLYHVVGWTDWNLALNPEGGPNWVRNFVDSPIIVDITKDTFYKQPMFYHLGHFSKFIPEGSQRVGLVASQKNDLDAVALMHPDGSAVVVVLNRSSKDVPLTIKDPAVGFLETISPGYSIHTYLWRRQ
row,SMILES,Potency
1,c1ccc2c(c1)OCC(c1nnc3n1-c1ccccc1SC3)O2 (configuration not stated),inactive: > 76.9 µM
2,CCC(C)(C(=O)NC1CCCC1)N(CC1CCCO1)C(=O)c1ccc2c(c1)OCO2 (configuration not stated),inactive: > 76.9 µM
3,CC(C)CCNC(=O)c1cccc(Cl)c1,inactive: > 76.9 µM
4,CCCCNS(=O)(=O)c1ccc2nc(SCC(=O)c3ccc(C#N)cc3)[nH]c2c1,inactive: > 76.9 µM
5,CCc1nnc2sc(-c3cc(-c4ccccc4)nc4ccccc34)nn12,inactive: > 76.9 µM
6,O=C1COc2ccc3ccccc3c2CN1,inactive: > 76.9 µM
7,Cc1cccc(C#N)c1NC1=CC(=O)CC(C)(C)C1,inactive: > 76.9 µM
8,COc1ccccc1NS(=O)(=O)c1cc(Cl)ccc1OC,inactive: > 76.9 µM
9,COC(=O)c1[nH]c2cc(OC)ccc2c1NC(=O)CCN1CCCCC1,inactive: > 76.9 µM
10,O=C(CCN1C(=O)COc2ccccc21)NCc1ccco1,inactive: > 76.9 µM
11,O=C(NCCN1CCc2ccccc2C1)C1CCN(S(=O)(=O)N2CCC3(CC2)OCCO3)CC1,inactive: > 76.9 µM
12,N#Cc1cccc(-n2nnnc2-c2ccccn2)c1,inactive: > 76.9 µM
13,CCOc1ccc(NC(=O)NC2CCOC(C)(C)C2)cc1 (configuration not stated),inactive: > 76.9 µM
14,O=C(Nc1ccc2oc(-c3ccccc3Cl)nc2c1)c1ncn[nH]1,inactive: > 76.9 µM
15,CCOc1cccc(NC(=O)C2CC(=O)N(C)C(=Nc3ccccc3)S2)c1 (configuration not stated),inactive: > 76.9 µM
16,CN(C)c1ccc(-c2ccccc2)nn1,inactive: > 76.9 µM
17,CN(C)c1ccc(-c2noc(C3CCN(S(=O)(=O)c4cccc(Cl)c4)CC3)n2)cc1,inactive: > 76.9 µM
18,COc1ccc(-c2nn(C)c3sc(C(=O)NCc4ccco4)cc23)cc1OC,inactive: > 76.9 µM
19,COc1ccc(Cn2nnnc2C(c2cc(OC)ccc2OC)N2CCC(C(N)=O)CC2)cc1 (configuration not stated),inactive: > 76.9 µM
20,CC1CCN(C(c2ccc(N(C)C)cc2)c2nnnn2Cc2ccc(F)cc2)CC1 (configuration not stated),inactive
21,C=CCN(CC=C)C(=O)c1ccncc1,inactive: > 76.9 µM
22,O=C(c1ccco1)N1CCN(C(c2ccc(F)cc2)c2nnnn2CC2CCCO2)CC1 (configuration not stated),inactive: > 76.9 µM
23,COC(=O)C(C#N)c1nc2ccccc2nc1N1CCN(Cc2ccc3c(c2)OCO3)CC1 (configuration not stated),inactive: > 76.9 µM

row,SMILES,Potency
1,COC(=O)c1ccc(CSc2nnc(SCc3ccc(C(=O)OC)o3)s2)o1,inactive: > 76.9 µM
2,Cc1nn(C)c(C)c1CNC(=O)c1nn2c(c1Cl)NC(c1cccs1)CC2C(F)(F)F (configuration not stated),inactive
3,c1ccc(-n2nnc3ccccc32)nc1,inactive: > 76.9 µM
4,COc1ccc(S(=O)(=O)Nc2ccc(S(=O)(=O)N3CCOCC3)cc2)cc1C,inactive: > 76.9 µM
5,CCN(CC)CCn1nc(C)nc1-c1ccccc1O,inactive: > 76.9 µM
6,CC(=O)N1CCC2(CC1)C(C#N)=C(N)Oc1c2sc2nc(C)cc(C)c12,inactive: > 76.9 µM
7,COc1ccc(CC(=O)Nc2nccs2)cc1OC,inactive: > 76.9 µM
8,CCCS(=O)(=O)N1CCC(C(=O)NC2CCCC(C)C2C)CC1 (configuration not stated),inactive: > 76.9 µM
9,Cc1cccc2cc3c(N)c(C#N)sc3nc12,inactive: > 76.9 µM
10,Cc1cc(C)c2nc(N3CCCN(C(=O)c4ccco4)CC3)c(C#N)cc2c1,inactive: > 76.9 µM
11,CC1CCN(S(=O)(=O)c2ccc(-c3nnc(SCc4cccnc4)o3)cc2)CC1,inactive: > 76.9 µM
12,CCn1c(=O)cc(OCC(=O)N2CCCCCC2)c2ccccc21,inactive: > 76.9 µM
13,O=C(CSc1nc(N2CCCCC2)nc(N2CCCCC2)n1)N1CCN(c2ccccc2)CC1,inactive: > 76.9 µM
14,O=S(c1ccsc1)c1ccsc1,inactive: > 76.9 µM
15,COC(=O)c1[nH]c(C)c(/C(O)=C2\C(=O)C(=O)N(CCN(C)C)C2c2ccco2)c1C (configuration not stated),inactive: > 76.9 µM
16,CC(C)Cc1ccc(S(=O)(=O)N2CCN(C(=O)c3ccco3)CC2)cc1,inactive: > 76.9 µM
17,C/C(O)=C(/C#N)c1nc2ccccc2[nH]1,inactive: > 76.9 µM
18,O=C(CN1C(=O)c2ccccc2S1(=O)=O)NC1CCCC1,inactive: > 76.9 µM
19,CCOC(=O)CC(=O)CSc1nc2c(sc(=S)n2-c2ccccc2)c(=O)[nH]1,inactive: > 76.9 µM
20,CCn1cc(C(=O)NCc2ccc(OC)cc2OC)c(=O)c2ccc(C)nc21,inactive: > 76.9 µM
21,COC(=O)Cn1c(CCS(=O)(=O)c2ccc(C)cc2)nc2ccccc21,inactive: > 76.9 µM
22,COc1cccc(C2N(c3ccccn3)C(=O)C3CCCN32)c1OC (configuration not stated),inactive: > 76.9 µM
23,CC(=O)c1c(C(C)=O)c(C)n(NC(=O)c2ccccc2O)c1C,inactive: > 76.9 µM

row,SMILES,Potency
1,O=C(c1ccco1)N1CCN(C/C=C/c2ccccc2)CC1,inactive: > 76.9 µM
2,CCc1cccc(C)c1NC(=O)CSc1nnc(-c2ccco2)n1N,inactive: > 76.9 µM
3,O=C(Nc1ccccc1C(=O)NCCN1CCOCC1)c1ccco1,inactive: > 76.9 µM
4,O=C(NCC1CCCO1)c1ccc(CS(=O)(=O)Cc2ccc(F)cc2)o1 (configuration not stated),inactive: > 76.9 µM
5,CC(=O)COc1ccc2c3c(c(=O)oc2c1C)CCCCC3,inactive: > 76.9 µM
6,O=C(CSc1ncn[nH]1)c1ccccc1,inactive: > 76.9 µM
7,Cc1ccc(C)c(N2CCN(C(c3ccncc3)c3nnnn3Cc3ccccc3)CC2)c1 (configuration not stated),inactive: > 76.9 µM
8,C=CCn1c(N)c(C(=O)OCC(C)C)c2nc3ccccc3nc21,inactive: > 76.9 µM
9,COCCCNC(=O)CCCn1c(=O)[nH]c2ccccc2c1=O,inactive: > 76.9 µM
10,O=C(O)c1c(Cl)c(Cl)c(Cl)c(Cl)c1C(=O)N1CCOCC1,inactive: > 76.9 µM
11,COCCN1C(=O)c2ccc(C(=O)Nc3nccs3)cc2C1=O,inactive: > 76.9 µM
12,Cn1c(SCC(=O)Nc2ccc3c(c2)OCCO3)nnc1-c1ccccn1,inactive: > 76.9 µM
13,CCCCCNC(=O)c1ccc2c(=O)n(CC3CCCO3)c(=O)[nH]c2c1 (configuration not stated),active: 11 µM
14,OC(Cn1cccn1)c1ccccc1 (configuration not stated),inactive: > 76.9 µM
15,CCCC(=O)Nc1ccc(Cl)c(NC(=O)C(C)(C)C)c1,inactive: > 76.9 µM
16,CC(=O)OCCCN1C(=O)c2ccc(Br)cc2C1=O,inactive: > 76.9 µM
17,O=C(NCC1CCCO1)c1cc2n(n1)C(C(F)(F)F)CC(c1ccc(F)cc1)N2 (configuration not stated),inactive: > 76.9 µM
18,O=C(Cn1cnc2c(nnn2Cc2ccccc2F)c1=O)NCC1CCCO1 (configuration not stated),inactive: > 76.9 µM
19,CCOC(=O)c1c(NC(=O)Cn2c(=O)oc3ccccc32)oc(C)c1C(C)=O,inactive: > 76.9 µM
20,O=C(O)C1CCCCC1C(=O)NCc1ccc(F)cc1 (configuration not stated),inactive: > 76.9 µM
21,CC(C)[C@H](NC(=O)Nc1ccc2c(c1)OCCO2)C(=O)O,inactive: > 76.9 µM
22,O=S(=O)(O)c1nc2ccccc2n1Cc1ccc(Cl)cc1,inactive: > 76.9 µM
23,CCCCc1[nH]nc2c1C1(C(=O)N(CC)c3ccccc31)C(C#N)=C(N)O2 (configuration not stated),inactive: > 76.9 µM

row,SMILES,Potency
1,CNC(=O)CSc1nnc(-c2cc3c(C)nn(-c4ccccc4)c3s2)n1C,inactive: > 76.9 µM
2,CC1(C(=O)N(CC(=O)NC2CCCC2)C2CCCC2)CC(=O)N=C2C=CC=CN21 (configuration not stated),inactive: > 76.9 µM
3,Cc1noc(C)c1S(=O)(=O)N1CCC(C(=O)N2CCN(C(=O)c3ccco3)CC2)CC1,inactive: > 76.9 µM
4,CCOC(=O)N1CCN(C(=O)c2csc3c2CCCCC3)CC1,inactive: > 76.9 µM
5,CC(C)(C)n1nc2c(c1NC(=O)COc1ccc(Cl)cc1)CSC2,inactive: > 76.9 µM
6,CCCCOc1ccc(C(=O)NCc2ccco2)cc1,inactive: > 76.9 µM
7,Cc1cc(C)c2[nH]c(=O)c(C(c3nnnn3C3CCCC3)N3CCOCC3)cc2c1 (configuration not stated),inactive: > 76.9 µM
8,CN(CC(=O)N1CC=C(c2ccccc2)CC1)S(=O)(=O)c1cnc[nH]1,inactive: > 76.9 µM
9,CCOC(=O)C1CCCN(C(=O)C2CC(=O)N(c3ccc(C)cc3)C2)C1 (configuration not stated),inactive: > 76.9 µM
10,CCOC(=O)c1c(NC(=O)c2ccc(-n3cnnn3)cc2)sc2c1CCCC2,inactive: > 76.9 µM
11,CSc1nc2nc(C)cc(-c3ccccc3)n2n1,inactive: > 76.9 µM
12,CCS(=O)(=O)NCc1ccc2[nH]c3c(c2c1)CCCC3,inactive: > 76.9 µM
13,O=S(=O)(Nc1ccc(C(F)(F)F)cc1)c1cnc[nH]1,inactive: > 76.9 µM
14,Brc1ccc(-c2nn3c(-c4ccccn4)nnc3s2)o1,inactive: > 76.9 µM
15,Cc1csc(NC(=O)CSc2nnc(C)s2)n1,inactive: > 76.9 µM
16,CCN(CC)CC(=O)Nc1c(Br)ccc2c1OCO2,inactive: > 76.9 µM
17,COCCCNC(=O)CCNS(=O)(=O)c1ccc(C)cc1,inactive: > 76.9 µM
18,COC(=O)c1ccc(Oc2nc(Nc3ccccc3)nc(N(C)C)n2)cc1,inactive: > 76.9 µM
19,COc1ccc(C2Sc3nncn3N2Cc2ccc(C#N)cc2)cc1 (configuration not stated),inactive: > 76.9 µM
20,COc1ccc(NC(=O)c2sc(SC)nc2N)cc1,inactive: > 76.9 µM
21,CCC1SC2=NCCN2C1(O)c1ccc(Cl)cc1 (configuration not stated),inactive: > 76.9 µM
22,CCn1nnc(NC(=O)c2cccc(-c3cc4ccccc4oc3=O)c2)n1,inactive: > 76.9 µM
23,CCOC(=O)CN1C(=O)C(C)(C)Oc2ccc(C(=O)Nc3ccccc3OC)cc21,inactive: > 76.9 µM
